Results on 59 compounds are retold here after PubChem BioAssay AID504374 (National Center for Advancing Translational Sciences (NCATS), 2011).

Each structure is given as a SMILES string. Hit rate of the full screen: of about 1,500 compounds, about 100 (6.7%) were called active. Roughly 7% stayed inconclusive and do not appear here. Calls follow the shape of the dose curve; as a rule, active = well fitted inhibition curve with a large enough effect; inconclusive = small, poorly fitted or top-dose-only effect, or effect the other way; inactive = flat fitted curve, though single readings scatter. The list shows a part of the results.
% is scaled to controls: 0 for no effect and ±100 for the full control effect.

Sequence of UniProt Q01196 (Q01196 whole entry, looked up): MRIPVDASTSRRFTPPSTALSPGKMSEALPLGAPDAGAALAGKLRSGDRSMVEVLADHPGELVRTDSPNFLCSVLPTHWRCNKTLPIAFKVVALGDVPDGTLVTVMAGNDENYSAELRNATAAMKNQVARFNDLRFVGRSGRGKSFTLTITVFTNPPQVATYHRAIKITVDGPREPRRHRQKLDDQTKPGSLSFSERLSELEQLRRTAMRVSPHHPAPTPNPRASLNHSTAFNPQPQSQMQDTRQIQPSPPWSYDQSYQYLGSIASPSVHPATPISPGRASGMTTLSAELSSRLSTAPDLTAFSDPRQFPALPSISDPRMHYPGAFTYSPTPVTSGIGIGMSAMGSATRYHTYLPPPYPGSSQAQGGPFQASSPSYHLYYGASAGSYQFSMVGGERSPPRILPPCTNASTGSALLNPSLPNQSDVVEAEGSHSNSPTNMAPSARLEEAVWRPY
Sequence of UniProt Q01196 (Q13951 whole entry, looked up): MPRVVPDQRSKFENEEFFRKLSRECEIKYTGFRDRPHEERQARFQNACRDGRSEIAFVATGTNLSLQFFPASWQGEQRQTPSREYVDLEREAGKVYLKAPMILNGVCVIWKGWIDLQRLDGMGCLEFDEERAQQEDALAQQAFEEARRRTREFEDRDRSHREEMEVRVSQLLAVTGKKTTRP

This assay concerns the target Runt-related transcription factor 1 (Homo sapiens) + Core-binding factor subunit beta (Homo sapiens) (UniProt Q01196+Q13951). Put plainly: qHTS Assay for Compounds Blocking the Interaction Between CBF-beta and RUNX1 for the Treatment of Acute Myeloid Leukemia: Hit Validation. Also: nearly all actives have a fitted effect of over 60% in size. The conditions noted are these: AlphaScreen CBFb-His/RUNX1-biotin binding; series mostly up to 59.8 µM; activity, negative = inhibition: at the top concentration. The source says:
NIH Chemical Genomics Center [NCGC]
NIH Molecular Libraries Probe Production centers Network [MLPCN]
Assay Submitter (PI): Paul Liu
Core Binding Factor (CBF) abnormalities are associated with 20-25% of all acute myeloid leukemias (AML), of which 5-10% are further sub classified as acute myelomonocytic leukemia with eosinophilia, also known as M4Eo in the FAB classification scheme. This subtype of leukemia is usually associated with chromosome 16 inversion (p13:q22). Chromosome 16 inversion results in formation of the fusion oncogene CBFB-MYH11, which encodes the fusion protein CBF-beta-SMMHC.
It has been hypothesized that the interference of CBF-beta and RUNX1 binding could have therapeutic implications for patients with CBF mediated leukemias. We developed a CBF-beta and RUNX1 binding assay in AlphaScreenTM format and optimized it for high throughput screening to search for inhibitors. The goal of this project is to screen MLPCN's compound collection (MLSMR) for identifying the inhibitors of the interaction between CBF-beta and RUNX1 proteins as research probes. If these probes work well in the animal models, the ultimate goal of this project is to development a new drug treatment for this disease.
This assay can not be used to assess how apparent inhibitors interfere with protein binding, and whether inhibitors specifically bind to either protein. Disruption of this protein-protein interaction, through any mechanism, is the intended target activity.
The present data set was run to confirm the activity of hits from the primary screen.
NCGC Assay Protocol Summary:
Step, Parameter, Description
(1) Reagent, 3 uL CBFb-His/RUNX1-biotin mix incubated together for 20 minutes at room temperature (30 nM each)
(2) Compound or control, 23 nL compound stock solution
(3) Incubation, 15 minutes at Room temperature
(4) Reagent, 1 uL 50 ng each of beads (Nickel beads and streptavidin beads)
(5) Incubation, 90 minutes at Room temperature
(6) Detection, Excitation=365 nm Emission=440 nm, Envision reader in AlphaScreenTM mode
Keywords: MLSMR, MLPCN, NIH Roadmap, qHTS, NCGC, Core binding factor, CBF, CBF-beta, Acute myeloid leukemia
A general note: Quantitative high-throughput screening tests each substance at several concentrations.
Consider `Cc1ccc(S(=O)(=O)N(C)C)cc1[N+](=O)[O-]`, for which the “activity, negative = inhibition” value is inactive: -1.88%.

Regarding `O=S(=O)(c1ccc(C(F)(F)F)cc1)N1CCCN(c2ccc(C(F)(F)F)cn2)CC1`, the “activity, negative = inhibition” value is inactive: -5.62%. For the compound `CC(=O)c1nnn(-c2ccc(F)cc2F)c1C`, the “activity, negative = inhibition” value is inactive: 5.31%.

Regarding `CC(=O)Nc1ccc(S(=O)(=O)N2CCN(CC(=O)N3CCOCC3)CC2)cc1`, the “activity, negative = inhibition” value is inactive: 4.41%. Next, `Nc1ccc2c(c1)nnn2-c1ccccc1`: inactive: 2.2%; `Cc1cc(C)cc(NCCC#N)c1`: inactive: 6.26%; `CCCc1cc(=O)c2ccc(OC/C(C)=N/O)cc2o1`: inactive: 0.225%. Turning to `Cc1nc([N+](=O)[O-])cn1CC(O)c1ccc(Cl)cc1` (centres undefined), the “activity, negative = inhibition” value is inactive: -1.69%.

For the compound `CC(C)(O)P(=O)(O)CCc1ccccc1`, the “activity, negative = inhibition” value was inactive: -8.04%. `Cc1cc(NS(=O)(=O)c2ccc(NC(=O)CCSc3ccc(F)cc3)cc2)nc(C)n1`: the “activity, negative = inhibition” value is inactive: 241%. As to `CN1CCN(C(=O)C23CC4CC(C)(CC(C)(C4)C2)C3)CC1`, the “activity, negative = inhibition” value was inactive: -3.52%.

In the case of `CCC(=O)Nc1cccc(-c2cn3cccc(C)c3n2)c1`, the “activity, negative = inhibition” value is inactive: -4.22%.

Turning to `O=[N+]([O-])c1cc(Cl)cc2c1nc(NCCO)c1ccccc12`, the “activity, negative = inhibition” value was inactive: -21.2%. As to `Cc1nc2c(c(=O)c3ccccc3n2C)c(=O)n1-c1ccccc1`, the “activity, negative = inhibition” value was inactive: -3.86%. Take `CCOC(=O)C1=C(N)Oc2c(oc(CO)cc2=O)C1c1ccc(Cl)cc1` (centres undefined): the “activity, negative = inhibition” value was inactive: -3.45%.

Turning to `COC(=O)c1scc(C)c1NC(=O)/C=C/C(=O)O`, the “activity, negative = inhibition” value was inactive: 3.12%. On to `COc1cccc(/C=N/NC(=O)c2cnccn2)c1OC`, for which the “activity, negative = inhibition” value was inactive: -3.28%. For `CC(=O)c1sc(-c2ccccc2)cc1NS(=O)(=O)c1ccc(C)cc1`, the “activity, negative = inhibition” value was inactive: -6.62%.

For the compound `Cc1onc(-c2c(Cl)cccc2Cl)c1C(=O)c1ccc(F)cc1`, the “activity, negative = inhibition” value is inactive: -2.65%. Turning to `O=C(CS(=O)(=O)c1ccc(C(F)(F)F)cn1)NNC(=O)c1ccccc1`, the “activity, negative = inhibition” value was inactive: 0.626%. On to `Cc1ccc(Cn2nc(C)cc2C(=O)Nc2ccc(Cl)cc2)cc1`, for which the “activity, negative = inhibition” value was inactive: -3.08%. In the case of `COc1cccc(/C=N/NC(=O)Cn2nc([N+](=O)[O-])cc2C)c1`, the “activity, negative = inhibition” value was inactive: 10.5%. Consider `COc1cc(N=Nc2ccccc2C(=O)O)ccc1O`, for which the “activity, negative = inhibition” value was inactive: -12.8%. Next, `COc1cccc(C2Oc3ccccc3C3CC(c4cccs4)=NN32)c1` (centres undefined): inactive: 4.22%.

Consider `COc1ccc(N/C=C/C(=O)c2ccc(OC)c(OC)c2)cc1`, for which the “activity, negative = inhibition” value is inactive: -2.67%. `COc1cccc(/C=N/NC(=O)Cn2cnc3c2c(=O)n(C)c(=O)n3C)c1`: the “activity, negative = inhibition” value is inactive: 4.69%. Consider `O=C(N/N=C/C(Br)=C/c1ccccc1)C(O)c1ccccc1` (centres undefined), for which the “activity, negative = inhibition” value is inactive: -15.9%. As for `CC1SCC(NC(=O)c2ccc(Cl)cc2)CS1` (centres undefined), the figure is inactive: 1.16%; as for `O=[N+]([O-])c1cccnc1Oc1ccc(F)cc1`, inactive: -0.561%. Next, `Cc1cc(=O)[nH]c(SCC(=O)NN(c2ccccc2)c2ccccc2)n1`: inactive: -10.9%; `CCN(CC)C(=O)CSc1nnc2nnc3cc(C)ccc3n12`: inactive: -0.465%. Take `O=C(O)c1ccccc1C(=O)Nc1ccccc1[N+](=O)[O-]`: the “activity, negative = inhibition” value was inactive: 7%. Next, `COc1ccccc1N1C(=O)C=C(Sc2nc(C)cc(C)n2)C1=O`: inactive: -5.84%; `COc1ccc(C(=O)CN2C(=O)c3ccccc3S2(=O)=O)cc1`: inactive: -0.754%. For the compound `COc1cc(/C=N/NC(=O)Cn2cnc3c2c(=O)n(C)c(=O)n3C)ccc1O`, the “activity, negative = inhibition” value is inactive: -2.57%. Take `COc1ccc(C2=NOC(CNC(=S)N3CCOCC3)C2)cc1` (centres undefined): the “activity, negative = inhibition” value is inactive: -1.41%.

Consider `O=C(Nc1ccc(Cl)cc1)NC1CCCCNC1=O` (centres undefined), for which the “activity, negative = inhibition” value was inactive: -3.89%. With `Oc1ccc(-c2nc3ccccc3s2)c(O)c1`, the “activity, negative = inhibition” value is inactive: 26.7%.

In the case of `Cc1ccsc1/C=N/N1CCN(c2ccccn2)CC1`, the “activity, negative = inhibition” value was inactive: -19.6%. `Cc1c(C(=O)/C=C/N(C)C)nnn1-c1ccc(Cl)cc1Cl`: the “activity, negative = inhibition” value is inactive: -14.6%. As for `CN(C)C(=O)CSc1nnc(NC(=O)CCc2ccccc2)s1`, the figure is inactive: 5.1%; as for `COc1ccc(/C=C/C(=O)Oc2cc(O)cc(O)c2)cc1`, inactive: 4.56%.

For `COc1ccc(S(=O)(=O)N2CCc3ccccc32)cc1C(=O)Nc1cccnc1`, the “activity, negative = inhibition” value is inactive: 0.0512%.

As to `O=C(O)c1ccccc1Sc1ccccc1S(=O)(=O)NC1CCCCC1`, the “activity, negative = inhibition” value is inactive: -2.05%. Next, `N#CC1CC(c2ccccc2)Nc2cc(Cl)ccc2N1` (centres undefined): inactive: 26.8%; `COc1ccc(/C=N/NC(=O)c2ccc3nc[nH]c3c2)cc1OC`: inactive: -0.42%; `CN(C)c1cc(-c2ccc([N+](=O)[O-])cc2)oc(=O)c1Cl`: inactive: -16.8%. On to `COc1ccc(C(=O)Nc2cccnc2Sc2ccc(Cl)cc2)cc1`, for which the “activity, negative = inhibition” value is inactive: 6.71%.

Take `CC(C)Cn1c(=O)c2c(nc3n2CCS3)n(C)c1=O`: the “activity, negative = inhibition” value is inactive: -0.346%.

Turning to `COc1ccccc1C(=O)Nc1ccc2c(c1)nc(CCNC(=O)c1ccccc1)n2C`, the “activity, negative = inhibition” value was inactive: -2.44%. As for `CCCCc1c(C)nc2cc(-c3ccco3)[nH]n2c1=O`, the figure is inactive: -6.15%; as for `CCCCc1cc(=O)oc2c(C)c(OCc3nn[nH]n3)ccc12`, inactive: -4.17%; as for `CCCCNc1nc2sc3c(c2c(=O)n1-c1cccc(Cl)c1)CCN(C)C3`, inactive: -4.32%. `CC(/C=N/n1c(COc2ccccc2)n[nH]c1=S)=C\c1ccco1`: the “activity, negative = inhibition” value was inactive: -17.5%. With `COc1cc(/C=N/n2nnnc2N)cc(OC)c1OC`, the “activity, negative = inhibition” value is inactive: 5.03%.

In the case of `CCOc1ccc2nc(N/C(N)=N/C(=S)Nc3cccc(OC)c3)nc(C)c2c1`, the “activity, negative = inhibition” value is inactive: -6.43%.

Take `CCOC(=O)C(=CNNc1c(C)csc1C(=O)OC)C(=O)OCC`: the “activity, negative = inhibition” value was inactive: -2.1%. Take `CC(C)NC(=O)Nc1cccc(Cl)c1`: the “activity, negative = inhibition” value is inactive: 1.29%. Next, `Cc1nc(-c2cc(C#N)c(Sc3cccc(C(F)(F)F)c3)nc2C)cs1`: inactive: 2.16%.
